# Measured values: the supplement of paper PMC12423691
# The other results are listed elsewhere or left out. Binding of human transcription factors and regulators to the viral nucleoprotein by AlphaScreen, crude cell-free proteins, amounts not normalised, one pass. Fold of the Venus control; higher = more signal. No active / inactive call. Single-pass screen; sequences are the whole Swiss-Prot entries looked up by name.
# B1: REST, Q13127 (protein)
# chain: MATQVMGQSSGGGGLFTSSGNIGMALPNDMYDLHDLSKAELAAPQLIMLANVALTGEVNGSCCDYLVGEERQMAELMPVGDNNFSDSEEGEGLEESADIKGEPHGLENMELRSLELSVVEPQPVFEASGAPDIYSSNKDLPPETPGAEDKGKSSKTKPFRCKPCQYEAESEEQFVHHIRVHSAKKFFVEESAEKQAKARESGSSTAEEGDFSKGPIRCDRCGYNTNRYDHYTAHLKHHTRAGDNERVYKCIICTYTTVSEYHWRKHLRNHFPRKVYTCGKCNYFSDRKNNYVQHVRTHTGERPYKCELCPYSSSQKTHLTRHMRTHSGEKPFKCDQCSYVASNQHEVTRHARQVHNGPKPLNCPHCDYKTADRSNFKKHVELHVNPRQFNCPVCDYAASKKCNLQYHFKSKHPTCPNKTMDVSKVKLKKTKKREADLPDNITNEKTEIEQTKIKGDVAGKKNEKSVKAEKRDVSKEKKPSNNVSVIQVTTRTRKSVTEVKEMDVHTGSNSEKFSKTKKSKRKLEVDSHSLHGPVNDEESSTKKKKKVESKSKNNSQEVPKGDSKVEENKKQNTCMKKSTKKKTLKNKSSKKSSKPPQKEPVEKGSAQMDPPQMGPAPTEAVQKGPVQVEPPPPMEHAQMEGAQIRPAPDEPVQMEVVQEGPAQKELLPPVEPAQMVGAQIVLAHMELPPPMETAQTEVAQMGPAPMEPAQMEVAQVESAPMQVVQKEPVQMELSPPMEVVQKEPVQIELSPPMEVVQKEPVKIELSPPIEVVQKEPVQMELSPPMGVVQKEPAQREPPPPREPPLHMEPISKKPPLRKDKKEKSNMQSERARKEQVLIEVGLVPVKDSWLLKESVSTEDLSPPSPPLPKENLREEASGDQKLLNTGEGNKEAPLQKVGAEEADESLPGLAANINESTHISSSGQNLNTPEGETLNGKHQTDSIVCEMKMDTDQNTRENLTGINSTVEEPVSPMLPPSAVEEREAVSKTALASPPATMAANESQEIDEDEGIHSHEGSDLSDNMSEGSDDSGLHGARPVPQESSRKNAKEALAVKAAKGDFVCIFCDRSFRKGKDYSKHLNRHLVNVYYLEEAAQGQE
# B2: TRIM13, O60858 (protein)
# chain: MELLEEDLTCPICCSLFDDPRVLPCSHNFCKKCLEGILEGSVRNSLWRPAPFKCPTCRKETSATGINSLQVNYSLKGIVEKYNKIKISPKMPVCKGHLGQPLNIFCLTDMQLICGICATRGEHTKHVFCSIEDAYAQERDAFESLFQSFETWRRGDALSRLDTLETSKRKSLQLLTKDSDKVKEFFEKLQHTLDQKKNEILSDFETMKLAVMQAYDPEINKLNTILQEQRMAFNIAEAFKDVSEPIVFLQQMQEFREKIKVIKETPLPPSNLPASPLMKNFDTSQWEDIKLVDVDKLSLPQDTGTFISKIPWSFYKLFLLILLLGLVIVFGPTMFLEWSLFDDLATWKGCLSNFSSYLTKTADFIEQSVFYWEQVTDGFFIFNERFKNFTLVVLNNVAEFVCKYKLL
# B3: VDR, P11473 (protein)
# chain: MEAMAASTSLPDPGDFDRNVPRICGVCGDRATGFHFNAMTCEGCKGFFRRSMKRKALFTCPFNGDCRITKDNRRHCQACRLKRCVDIGMMKEFILTDEEVQRKREMILKRKEEEALKDSLRPKLSEEQQRIIAILLDAHHKTYDPTYSDFCQFRPPVRVNDGGGSHPSRPNSRHTPSFSGDSSSSCSDHCITSSDMMDSSSFSNLDLSEEDSDDPSVTLELSQLSMLPHLADLVSYSIQKVIGFAKMIPGFRDLTSEDQIVLLKSSAIEVIMLRSNESFTMDDMSWTCGNQDYKYRVSDVTKAGHSLELIEPLIKFQVGLKKLNLHEEEHVLLMAICIVSPDRPGVQDAALIEAIQDRLSNTLQTYIRCRHPPPGSHLLYAKMIQKLADLRSLNEEHSKQYRCLSFQPECSMKLTPLVLEVFGNEIS
# B4: ZBTB20, Q9HC78 (protein)
# chain: MLERKKPKTAENQKASEENEITQPGGSSAKPGLPCLNFEAVLSPDPALIHSTHSLTNSHAHTGSSDCDISCKGMTERIHSINLHNFSNSVLETLNEQRNRGHFCDVTVRIHGSMLRAHRCVLAAGSPFFQDKLLLGYSDIEIPSVVSVQSVQKLIDFMYSGVLRVSQSEALQILTAASILQIKTVIDECTRIVSQNVGDVFPGIQDSGQDTPRGTPESGTSGQSSDTESGYLQSHPQHSVDRIYSALYACSMQNGSGERSFYSGAVVSHHETALGLPRDHHMEDPSWITRIHERSQQMERYLSTTPETTHCRKQPRPVRIQTLVGNIHIKQEMEDDYDYYGQQRVQILERNESEECTEDTDQAEGTESEPKGESFDSGVSSSIGTEPDSVEQQFGPGAARDSQAEPTQPEQAAEAPAEGGPQTNQLETGASSPERSNEVEMDSTVITVSNSSDKSVLQQPSVNTSIGQPLPSTQLYLRQTETLTSNLRMPLTLTSNTQVIGTAGNTYLPALFTTQPAGSGPKPFLFSLPQPLAGQQTQFVTVSQPGLSTFTAQLPAPQPLASSAGHSTASGQGEKKPYECTLCNKTFTAKQNYVKHMFVHTGEKPHQCSICWRSFSLKDYLIKHMVTHTGVRAYQCSICNKRFTQKSSLNVHMRLHRGEKSYECYICKKKFSHKTLLERHVALHSASNGTPPAGTPPGARAGPPGVVACTEGTTYVCSVCPAKFDQIEQFNDHMRMHVSDG
# B5: TFCP2, Q12800 (protein)
# chain: MAWALKLPLADEVIESGLVQDFDASLSGIGQELGAGAYSMSDVLALPIFKQEESSLPPDNENKILPFQYVLCAATSPAVKLHDETLTYLNQGQSYEIRMLDNRKLGELPEINGKLVKSIFRVVFHDRRLQYTEHQQLEGWRWNRPGDRILDIDIPMSVGIIDPRANPTQLNTVEFLWDPAKRTSVFIQVHCISTEFTMRKHGGEKGVPFRVQIDTFKENENGEYTEHLHSASCQIKVFKPKGADRKQKTDREKMEKRTPHEKEKYQPSYETTILTECSPWPEITYVNNSPSPGFNSSHSSFSLGEGNGSPNHQPEPPPPVTDNLLPTTTPQEAQQWLHRNRFSTFTRLFTNFSGADLLKLTRDDVIQICGPADGIRLFNALKGRMVRPRLTIYVCQESLQLREQQQQQQQQQQKHEDGDSNGTFFVYHAIYLEELTAVELTEKIAQLFSISPCQISQIYKQGPTGIHVLISDEMIQNFQEEACFILDTMKAETNDSYHIILK
# B6: ZIC3, O60481 (protein)
# chain: MTMLLDGGPQFPGLGVGSFGAPRHHEMPNREPAGMGLNPFGDSTHAAAAAAAAAAFKLSPAAAHDLSSGQSSAFTPQGSGYANALGHHHHHHHHHHHTSQVPSYGGAASAAFNSTREFLFRQRSSGLSEAASGGGQHGLFAGSASSLHAPAGIPEPPSYLLFPGLHEQGAGHPSPTGHVDNNQVHLGLRGELFGRADPYRPVASPRTDPYAAGAQFPNYSPMNMNMGVNVAAHHGPGAFFRYMRQPIKQELSCKWIDEAQLSRPKKSCDRTFSTMHELVTHVTMEHVGGPEQNNHVCYWEECPREGKSFKAKYKLVNHIRVHTGEKPFPCPFPGCGKIFARSENLKIHKRTHTGEKPFKCEFEGCDRRFANSSDRKKHMHVHTSDKPYICKVCDKSYTHPSSLRKHMKVHESQGSDSSPAASSGYESSTPPAIASANSKDTTKTPSAVQTSTSHNPGLPPNFNEWYV
# B7: CEBPE, Q15744 (protein)
# chain: MSHGTYYECEPRGGQQPLEFSGGRAGPGELGDMCEHEASIDLSAYIESGEEQLLSDLFAVKPAPEARGLKGPGTPAFPHYLPPDPRPFAYPPHTFGPDRKALGPGIYSSPGSYDPRAVAVKEEPRGPEGSRAASRGSYNPLQYQVAHCGQTAMHLPPTLAAPGQPLRVLKAPLATAAPPCSPLLKAPSPAGPLHKGKKAVNKDSLEYRLRRERNNIAVRKSRDKAKRRILETQQKVLEYMAENERLRSRVEQLTQELDTLRNLFRQIPEAANLIKGVGGCS
# B8: ABRA, Q8N0Z2 (protein)
# chain: MAPGEKESGEGPAKSALRKIRTATLVISLARGWQQWANENSIRQAQEPTGWLPGGTQDSPQAPKPITPPTSHQKAQSAPKSPPRLPEGHGDGQSSEKAPEVSHIKKKEVSKTVVSKTYERGGDVSHLSHRYERDAGVLEPGQPENDIDRILHSHGSPTRRRKCANLVSELTKGWRVMEQEEPTWRSDSVDTEDSGYGGEAEERPEQDGVQVAVVRIKRPLPSQVNRFTEKLNCKAQQKYSPVGNLKGRWQQWADEHIQSQKLNPFSEEFDYELAMSTRLHKGDEGYGRPKEGTKTAERAKRAEEHIYREMMDMCFIICTMARHRRDGKIQVTFGDLFDRYVRISDKVVGILMRARKHGLVDFEGEMLWQGRDDHVVITLLK
# B9: BRMS1, Q9HCU9 (protein)
# chain: MPVQPPSKDTEEMEAEGDSAAEMNGEEEESEEERSGSQTESEEESSEMDDEDYERRRSECVSEMLDLEKQFSELKEKLFRERLSQLRLRLEEVGAERAPEYTEPLGGLQRSLKIRIQVAGIYKGFCLDVIRNKYECELQGAKQHLESEKLLLYDTLQGELQERIQRLEEDRQSLDLSSEWWDDKLHARGSSRSWDSLPPSKRKKAPLVSGPYIVYMLQEIDILEDWTAIKKARAAVSPQKRKSDGP
# B10: ZNF446, Q9NWS9 (protein)
# chain: MPSPLGPPCLPVMDPETTLEEPETARLRFRGFCYQEVAGPREALARLRELCCQWLQPEAHSKEQMLEMLVLEQFLGTLPPEIQAWVRGQRPGSPEEAAALVEGLQHDPGQLLGWITAHVLKQEVLPAAQKTEEPLGSPHPSGTVESPGEGPQDTRIEGSVQLSCSVKEEPNVDGQEVAPSSPPLAAQSPEGNHGHQEPASTSFHPPRIQEEWGLLDRSQKELYWDAMLEKYGTVVSLGLPPHQPEAQAQSELGMLLTGTGVCRSLRSGNESEGPPGCPEAQPPQGPGPAAWEGLSGAATPAPTVRPGTPPVPTQPTPAETRLEPAATPRKPYTCEQCGRGFDWKSVFVIHHRTHTSGPGVQSPGLATGESTEKPPQGEVAFPHHPRRSLTGPRSYPCEECGCSFSWKSQLVIHRKSHTGQRRHFCSDCGRAFDWKSQLVIHRKGHRPEVP
# Target: nucleoprotein N of Crimean-Congo hemorrhagic fever virus
# Assay: AlphaScreen luminescence signal relative to Venus negative control (fold); higher = stronger binding to CCHFV N
# Method: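 AlphaScreen binding of cell-free made, FLAG-GST-tagged human transcription factors and regulators (crude translation products) to biotinylated N protein; signal as fold of the FLAG-GST-Venus control. One pass.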
row,Binder,AlphaScreen luminescence signal
1,B1,1.72
2,B2,3.07
3,B3,1.81
4,B4,2.19
5,B5,2.33
6,B6,2.6
7,B7,3.67
8,B8,2.6
9,B9,1.81
10,B10,1.4
